In the assay the test system is NCI-H322M lung. In words: NCI-60 cell line screen, 48 h.

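A five-concentration, 48-hour dose response in 96-well plates underlies each endpoint, interpolated linearly between surrounding concentrations. Here, GI50 denotes the concentration required for 50% inhibition of growth. The concentration for full growth arrest is given as TGI.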

On to `Nc1nc(N)c2c(n1)NC(c1ccccc1)CC(c1ccc(Nc3nc(NCCO)nc(Nc4ccc(Cl)cc4)n3)cc1)=N2` (stereo unspecified), for which the GI50 is 1.63 µM and the TGI came to 3.04 µM. Taken in the same sequence, the figures for `Cc1ccc2c(n1)C(=O)C(Cl)=C(Nc1ccc(C(C)C)cc1)C2=O` were 7.45 µM and 21 µM.

Take `COc1ccc(/C=N/NC2=NC3C(S2)N(C)C(=O)N3C)cc1` (stereo unspecified): the GI50 is 12.5 µM and the TGI was more than 100 µM. Taken in the same sequence, the figures for `CN1CCC(n2cc(Nc3ncc4c(=O)n(-c5c(Cl)cccc5Cl)cc(Br)c4n3)cn2)CC1` were 0.326 µM and 14.3 µM.

Consider `C=C1C(=O)O[C@@H]2/C=C(/C)C3=CC(=O)[C@@](C)(C[C@H](OC(=O)/C(C)=C\C)[C@@H]12)O3`, for which the TGI was more than 32.5 µM. With `CS(=O)(=O)c1nccc(-c2c(-c3cccc(OCc4ccc(Cl)c(C(F)(F)F)c4)c3)nc3sccn23)n1`, the GI50 is 5.51 µM and the TGI was determined as 11.5 µM.
